Measured values: article PMC9911399, “Two distinct binding modes provide the RNA-binding protein RbFox with extraordinary sequence specificity”
Changes are numbered by the printed parent chain; changes in the protein carry UniProt numbers. Some of the results follow.

T1: RBFOX1 RRM (Homo sapiens, UniProt Q9NWB1 109-208)
T1 sequence: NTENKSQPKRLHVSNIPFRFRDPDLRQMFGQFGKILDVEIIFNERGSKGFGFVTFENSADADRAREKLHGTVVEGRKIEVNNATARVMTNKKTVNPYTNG

B1: GUCUACA (DNA:RNA)
RNA: GGGAGACCGGAAUUCAGAUUGUCCGUCUACAUUAAAUCCCGUCGUAGCCACCA
DNA 1: CAATCTGAATTCCGGTCTCCC
DNA 2: TGGTGGCTACGACGGGATT
B2: UAUGAGG (DNA:RNA)
RNA: B1 RNA with G25U, U26A, C27U, U28G, C30G, A31G
DNA 1: CAATCTGAATTCCGGTCTCCC
DNA 2: TGGTGGCTACGACGGGATT
B3: CUUUCUG (DNA:RNA)
RNA: B1 RNA with G25C, C27U, A29C, C30U, A31G
DNA 1: CAATCTGAATTCCGGTCTCCC
DNA 2: TGGTGGCTACGACGGGATT
B4: CAUAACC (DNA:RNA)
RNA: B1 RNA with G25C, U26A, C27U, U28A, A31C
DNA 1: CAATCTGAATTCCGGTCTCCC
DNA 2: TGGTGGCTACGACGGGATT
B5: CCAUCUU (DNA:RNA)
RNA: B1 RNA with G25C, U26C, C27A, A29C, C30U, A31U
DNA 1: CAATCTGAATTCCGGTCTCCC
DNA 2: TGGTGGCTACGACGGGATT
B6: CAAAUUC (DNA:RNA)
RNA: GGGAGACCGGAAUUCAGAUUGUCCCAAAUUCUUAAAUCCCGUCGUAGCCACCA
DNA 1: CAATCTGAATTCCGGTCTCCC
DNA 2: TGGTGGCTACGACGGGATT
B7: CAACGCU (DNA:RNA)
RNA: B6 RNA with A28C, U29G, U30C, C31U
DNA 1: CAATCTGAATTCCGGTCTCCC
DNA 2: TGGTGGCTACGACGGGATT
B8: CGGGACU (DNA:RNA)
RNA: B1 RNA with G25C, U26G, C27G, U28G, A31U
DNA 1: CAATCTGAATTCCGGTCTCCC
DNA 2: TGGTGGCTACGACGGGATT
B9: UCCCACU (DNA:RNA)
RNA: B1 RNA with G25U, U26C, U28C, A31U
DNA 1: CAATCTGAATTCCGGTCTCCC
DNA 2: TGGTGGCTACGACGGGATT
B10: CUGCCAG (DNA:RNA)
RNA: B6 RNA with A26U, A27G, A28C, U29C, U30A, C31G
DNA 1: CAATCTGAATTCCGGTCTCCC
DNA 2: TGGTGGCTACGACGGGATT
B11: ACCAAAC (DNA:RNA)
RNA: B6 RNA with C25A, A26C, A27C, U29A, U30A
DNA 1: CAATCTGAATTCCGGTCTCCC
DNA 2: TGGTGGCTACGACGGGATT
B12: GGGCCAA (DNA:RNA)
RNA: B1 RNA with U26G, C27G, U28C, A29C, C30A
DNA 1: CAATCTGAATTCCGGTCTCCC
DNA 2: TGGTGGCTACGACGGGATT
B13: UCUAGAG (DNA:RNA)
RNA: B6 RNA with C25U, A26C, A27U, U29G, U30A, C31G
DNA 1: CAATCTGAATTCCGGTCTCCC
DNA 2: TGGTGGCTACGACGGGATT
B14: CUUCGGU (DNA:RNA)
RNA: B6 RNA with A26U, A27U, A28C, U29G, U30G, C31U
DNA 1: CAATCTGAATTCCGGTCTCCC
DNA 2: TGGTGGCTACGACGGGATT
B15: GAUGGCU (DNA:RNA)
RNA: B1 RNA with U26A, C27U, U28G, A29G, A31U
DNA 1: CAATCTGAATTCCGGTCTCCC
DNA 2: TGGTGGCTACGACGGGATT
B16: CACUACA (DNA:RNA)
RNA: B1 RNA with G25C, U26A
DNA 1: CAATCTGAATTCCGGTCTCCC
DNA 2: TGGTGGCTACGACGGGATT
B17: CAUCAUU (DNA:RNA)
RNA: B6 RNA with A27U, A28C, U29A, C31U
DNA 1: CAATCTGAATTCCGGTCTCCC
DNA 2: TGGTGGCTACGACGGGATT
B18: CAACAAU (DNA:RNA)
RNA: B6 RNA with A28C, U29A, U30A, C31U
DNA 1: CAATCTGAATTCCGGTCTCCC
DNA 2: TGGTGGCTACGACGGGATT
B19: GCGGCCU (DNA:RNA)
RNA: B1 RNA with U26C, C27G, U28G, A29C, A31U
DNA 1: CAATCTGAATTCCGGTCTCCC
DNA 2: TGGTGGCTACGACGGGATT
B20: CGCCCUU (DNA:RNA)
RNA: B6 RNA with A26G, A27C, A28C, U29C, C31U
DNA 1: CAATCTGAATTCCGGTCTCCC
DNA 2: TGGTGGCTACGACGGGATT
B21: CUAACGA (DNA:RNA)
RNA: B6 RNA with A26U, U29C, U30G, C31A
DNA 1: CAATCTGAATTCCGGTCTCCC
DNA 2: TGGTGGCTACGACGGGATT
B22: UUAUCUC (DNA:RNA)
RNA: B6 RNA with C25U, A26U, A28U, U29C
DNA 1: CAATCTGAATTCCGGTCTCCC
DNA 2: TGGTGGCTACGACGGGATT
B23: UUUGCGG (DNA:RNA)
RNA: B1 RNA with G25U, C27U, U28G, A29C, C30G, A31G
DNA 1: CAATCTGAATTCCGGTCTCCC
DNA 2: TGGTGGCTACGACGGGATT
B24: CGGCGGC (DNA:RNA)
RNA: B6 RNA with A26G, A27G, A28C, U29G, U30G
DNA 1: CAATCTGAATTCCGGTCTCCC
DNA 2: TGGTGGCTACGACGGGATT
B25: UUUACCG (DNA:RNA)
RNA: B1 RNA with G25U, C27U, U28A, A29C, A31G
DNA 1: CAATCTGAATTCCGGTCTCCC
DNA 2: TGGTGGCTACGACGGGATT
B26: GAUACAA (DNA:RNA)
RNA: B6 RNA with C25G, A27U, U29C, U30A, C31A
DNA 1: CAATCTGAATTCCGGTCTCCC
DNA 2: TGGTGGCTACGACGGGATT
B27: AACCCCA (DNA:RNA)
RNA: B1 RNA with G25A, U26A, U28C, A29C
DNA 1: CAATCTGAATTCCGGTCTCCC
DNA 2: TGGTGGCTACGACGGGATT
B28: AAGCAAG (DNA:RNA)
RNA: B6 RNA with C25A, A27G, A28C, U29A, U30A, C31G
DNA 1: CAATCTGAATTCCGGTCTCCC
DNA 2: TGGTGGCTACGACGGGATT
B29: GGACAGA (DNA:RNA)
RNA: B1 RNA with U26G, C27A, U28C, C30G
DNA 1: CAATCTGAATTCCGGTCTCCC
DNA 2: TGGTGGCTACGACGGGATT
B30: ACGUGGC (DNA:RNA)
RNA: B6 RNA with C25A, A26C, A27G, A28U, U29G, U30G
DNA 1: CAATCTGAATTCCGGTCTCCC
DNA 2: TGGTGGCTACGACGGGATT
B31: GAUCGGU (DNA:RNA)
RNA: B6 RNA with C25G, A27U, A28C, U29G, U30G, C31U
DNA 1: CAATCTGAATTCCGGTCTCCC
DNA 2: TGGTGGCTACGACGGGATT

molecular target: T1, RBFOX1 RRM; assay: EMSA; HiTS-Eq, 1 nM pool, 10 min; buffer printed only for the single-RNA assays: 10 mM Tris pH 7.5, 150 mM NaCl, 3.4 mM EDTA, 0.001% NP-40, 30 C; details: tags: His6 N-terminal (pET28a); label: 5' 32P
Procedure, shortened: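 Relative association constants, normalised to the cognate motif, were derived by comparing read counts of each RNA species with those of the control reaction. The RNA sequenced was the free fraction, separated by 8% native PAGE after a 10 min equilibration in 50 µL of 1 nM 5′-radiolabelled RNA (7 randomized nucleotides) with increasing concentrations of purified wild-type or mutant RbFox RRM.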

Binder | binding signal
B1 | 0.00434 KA relative to UGCAUGU
B2 | 0.0088 KA relative to UGCAUGU
B3 | 0.0195 KA relative to UGCAUGU
B4 | 0.000335 KA relative to UGCAUGU
B5 | 0.00216 KA relative to UGCAUGU
B6 | 0.00405 KA relative to UGCAUGU
B7 | 0.00299 KA relative to UGCAUGU
B8 | 0.019 KA relative to UGCAUGU
B9 | 0.0106 KA relative to UGCAUGU
B10 | 0.0171 KA relative to UGCAUGU
B11 | 0.00153 KA relative to UGCAUGU
B12 | 0.0082 KA relative to UGCAUGU
B13 | 0.0131 KA relative to UGCAUGU
B14 | 0.013 KA relative to UGCAUGU
B15 | 0.0216 KA relative to UGCAUGU
B16 | 0.00157 KA relative to UGCAUGU

Binder | binding signal
B17 | 0.00301 KA relative to UGCAUGU
B18 | 0.000214 KA relative to UGCAUGU
B19 | 0.0282 KA relative to UGCAUGU
B20 | 0.00818 KA relative to UGCAUGU
B21 | 0.00482 KA relative to UGCAUGU
B22 | 0.00713 KA relative to UGCAUGU
B23 | 0.018 KA relative to UGCAUGU
B24 | 0.0185 KA relative to UGCAUGU
B25 | 0.00569 KA relative to UGCAUGU
B26 | 0.00227 KA relative to UGCAUGU
B27 | 0.00033 KA relative to UGCAUGU
B28 | 0.00797 KA relative to UGCAUGU
B29 | 0.0189 KA relative to UGCAUGU
B30 | 0.0095 KA relative to UGCAUGU
B31 | 0.0158 KA relative to UGCAUGU
